Results taken from PubChem BioAssay AID743279 (National Center for Advancing Translational Sciences (NCATS), 2014).
The campaign covered roughly 360,000 compounds. About 17,000 (4.7%) were called active. Inconclusive results, whose numbers are uncertain, are shown with a selection of clear calls. Cut-off read from the data, not from the text of the source: active = activity change below about -50%; inconclusive = mostly about -30% to -49%; inactive = weaker than that.

test: qHTS for Inhibitors of Inflammasome Signaling: IL-1-beta AlphaLISA Primary Screen; conditions: THP-1 LPS/ATP IL-1B secretion, 16 h; at 57.5 µM, hits give low values
Procedure, shortened: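 THP-1 cells pretreated 1 hr with compounds (up to 57.5 uM final), then stimulated with LPS (250 ng/mL final) plus ATP (1.25 mM final); secreted IL-1B measured by AlphaLISA after 16 hr, decreased signal indicating inhibition.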
% is set by controls: 0 for no effect and ±100 for the full control effect.

Activity change, inactive:
O=c1cc(-c2ccc(O)cc2)oc2ccc3ccccc3c12 -21.7%
CCOC(=O)[C@]12CCCC=C1N(Cc1cccc3ccccc13)C(=O)[C@H](CC(=O)NCc1ccc(C)o1)C2 -2.08%
CC(C)C[C@H](NC(=O)N1CC(=O)Nc2ccccc21)C(=O)N[C@H](Cc1ccccc1)C(=O)O 4.57%
CC(Sc1nnc(-c2cccnc2)n1N)C(=O)N1CCOCC1 (stereo not given) -0.245%
O=C(c1cccs1)N1CCN(S(=O)(=O)c2ccc(F)cc2)CC1 -14%
COc1ccc(-c2c(-c3ccccc3OC)oc3ccccc23)cn1 16.1%
Nc1ccc(-c2ccc(C(=O)O)s2)cn1 3.57%
O=c1c2oc3ccccc3c2ncn1Cc1ccc(Cl)cc1 18.6%
CCCCCCc1cc2cc(-c3nnc(-c4ccccc4OC)o3)c(=O)oc2cc1O 1.15%
CCN(CCCNC(=O)COc1cc(=O)n(CC)c2ccccc12)c1ccccc1 -13.1%
COc1ccc(C(=O)C2CCCN(C(=O)c3cccnc3OC)C2)c(C)c1 (stereo not given) 44.1%
O=C(CN1CCSC1=O)N1CCN(S(=O)(=O)c2ccc(F)cc2)CC1 1.85%
CC(=O)c1ccc(C(=O)N(CCN(C)C)c2nc3c(Cl)cccc3s2)cc1 -1.19%
Cc1cccc(NC(=O)NNC(=O)c2cc(-c3ccccc3Cl)nc3ccccc23)c1 -14.1%
CC(C)(C)N(CC#CCC1(O)c2ccccc2-c2ccccc21)CCO 25.2%
O=C(CNc1ccccc1F)Nc1cc(S(=O)(=O)N2CCCCC2)ccc1Cl 10.2%

Activity change, active:
Cc1cc(C(=O)CCl)c(C)n1-c1cccc([N+](=O)[O-])c1 -100%
CCOc1ccc2[nH]c3c(NCCC(C)C)ncnc3c2c1 -68.2%
c1cncc(CSc2ccc(-c3cccs3)nn2)c1 -60.5%
O=C1N(c2ccccc2)C[C@@H]2C[C@@H](c3cc4ccccc4o3)N3CCC[C@@]123 -103%
CCCC(=O)N1CCN(c2ccc(NC(=O)c3ccc([N+](=O)[O-])o3)cc2Cl)CC1 -110%
COc1ccc2c(c1)[C@H]1[C@H](CO2)[C@H](c2ccccc2)[C@]2(C)C(=O)Nc3ccc(Cl)cc3C(=O)N12 -53.7%
Cc1cc(NC(=O)c2ccc3[nH]c(C)c(C)c3c2)ccn1 -58.2%
CN(C(=S)Nc1ccc(Oc2ccccc2)cc1)c1ccc(O)cc1 -73.4%
Cc1ccc(-c2noc(N=O)c2NO)cc1 -95.9%
CC(=O)Nc1ccc(S(=O)(=O)NCC(=O)OCc2cc(=O)oc3ccc4ccccc4c23)cc1 -58.2%
O=[N+]([O-])c1ccccc1C1Nc2cccc3cccc(c23)N1 -65.9%
Cc1cc(C)nc(NC(=O)/C=C/c2ccc(Cl)cc2Cl)c1 -52.8%
O=C(CC(c1ccccc1)c1ccccc1O)NCCc1ccccc1 (stereo not given) -51.2%
CCOC(=O)c1c(-n2c(C)cc(C=O)c2C)sc2c1CCCC2 -56.4%

Activity change, inconclusive:
Cc1ccc(NC(=O)NC2CCCCC2)cc1Cl -31.3%
CC(CN1CCCCC1)OC(=O)COc1ccc(Br)cc1 (stereo not given) -32.6%
CCCCn1nnnc1C(c1ccccc1)N1CCCN(Cc2ccc(F)cc2)CC1 (stereo not given) -45%
CC(C)NC(=O)N(Cc1ccc(Cl)cc1)Cc1cccs1 -30.7%
COc1ccc2[nH]c(=O)c(C(c3nnnn3C3CCCC3)N3CCN(Cc4ccc5c(c4)OCO5)CC3)cc2c1 (stereo not given) -39.8%
CCn1c2ccccc2c2cc(NC(=O)C(=O)N3CCOCC3)ccc21 -37.1%
COc1cccc(NC(=O)NC2CCCCCCC2)c1 -37.6%
COc1ccc(C2=Nn3c(nnc3-c3ccncc3)SC2)cc1OC -42.8%
N#CC1(NC(=O)CSc2nnc(-c3ccccc3F)o2)CCCCC1 -30.3%
CCCCNC(=S)Nc1ccc2nc(N3CCN(CC)CC3)cc(C)c2c1 -37.9%
Fc1ccc(N2CCN(c3nnnn3-c3ccccc3)CC2)cc1 -41.6%
O=C(CSc1nnc2scc(-c3ccccc3)n12)N1CCN(Cc2ccccc2)CC1 -32.1%
Cc1cc(C)c(CN2CCN(CCCn3cnc(C(=O)Nc4ccc(C)c(C)c4)n3)CC2)c(C)c1 -45.4%
Cc1cc(Br)ccc1NC(=O)c1ccccc1-c1ccccc1 -39.3%
COc1ccc2nc(Nc3ccc4c(c3)OCO4)sc2c1 -33.3%
O=C(Nc1ccccc1N1CCOCC1)C1CCN(S(=O)(=O)c2cccc(C(F)(F)F)c2)CC1 -40.9%
COc1ccc2[nH]c(=O)c(CN(Cc3nnnn3Cc3ccccc3)CC3CCCO3)cc2c1 (stereo not given) -34.3%
COc1ccc2[nH]c3c(c2c1)CCN1C(=O)C(CC(=O)NCc2cccc(C(F)(F)F)c2)C[C@H](C(=O)N2CCCCC2)[C@@]31CCc1ccccc1 (stereo not given in full) -40.7%
CCN(C(=O)c1ccc(N2CC3CC(C2)c2cccc(=O)n2C3)c(NC(=O)c2ccncc2)c1)c1cccc(C)c1 (stereo not given) -45.1%
Cn1c(=O)c(Nc2ccc(O)cc2)c2c3c(cccc31)C(=O)c1ccccc1-2 -42.3%
COc1ccc2cc(C(=O)C3CCCN(C(=O)c4snnc4C)C3)ccc2c1 (stereo not given) -30.7%
CCN(CC)CCN(C(=O)c1ccc2ccccc2c1)c1nc2cc3c(cc2s1)OCO3 -48.3%
Cc1ccccc1NS(=O)(=O)c1ccc(NC(=O)c2ccco2)cc1 -36.2%
Cc1ccc(C(=O)N/C(=C/c2ccc(C(C)C)cc2)C(=O)NCCCN2CCOCC2)cc1 -35.9%
C[C@@H]1CNC(=O)c2c(C(=O)Nc3cccc(Cl)c3)ncn21 -33.4%
